Out of some 330,000 compounds screened, about 1,500 (0.45%) were called active. The shares of active, inactive and inconclusive entries below differ from those in the screen. Cut-off read from the data, not from the text of the source: active = inhibition above about 45% (passing the limit was not always enough); inconclusive = no clear call, values can overlap the other calls.
Target: Ubiquitin-conjugating enzyme E2 N (Homo sapiens) (UniProt P61088)
Test: UBC13 polyubiquitin chain formation inhibitors, primary screen, biochemical, TR-FRET, uHTS (AID 485273)
Details: at 20 µM, hits give high values

Sequence of UniProt P61088 (P61088 whole entry, looked up): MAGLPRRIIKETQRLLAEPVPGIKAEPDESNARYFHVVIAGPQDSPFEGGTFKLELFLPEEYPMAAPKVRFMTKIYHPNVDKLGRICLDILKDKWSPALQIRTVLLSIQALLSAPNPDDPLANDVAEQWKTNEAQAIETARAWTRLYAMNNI

Compound | inhibition
S=c1nc(C2CCCCC2)[nH]c2ccccc12 | inconclusive: 72.7%
COc1ccc(-c2nc(C#N)c(N3CCC(C(N)=O)CC3)o2)cc1OC | inactive: 5%
COc1cccc(NC(=O)CCCNC(=O)Cn2cnc3sc(C)c(C)c3c2=O)c1 | inactive: -2.4%
CCCCNC(=O)CNC(=O)c1nn(-c2ccc(OC)c(Cl)c2)c(=O)c2ccccc12 | inconclusive: 47.9%
CC1(C)Cc2ccccc2-c2nc(NCCO)n(-c3ccccc3)c(=O)c21 | inconclusive: 90.5%
COc1cc2[nH]c(=S)n(NC(=O)c3ccccc3)c(=O)c2cc1OC | inconclusive: 91.8%
COc1cc2c3nnc(-c4ccc(F)cc4)c-3cn(Cc3ccccc3)c2cc1OC | active: 82.4%
CCC(SC1=NCCS1)C(=O)Nc1nnc(-c2ccccc2OC)s1 (centres undefined) | inactive: 0.1%
CCOC(=O)c1cnc2c(c(C)nn2CC)c1NC1CC1 | inactive: -0.6%
CCOc1ccc(-c2nnc(-c3snc(-c4ccc(F)cc4)c3N=CN(C)C)o2)cc1 | inconclusive: 61.8%
CC(=O)N1CCC(C(=O)Nc2ccc(S(=O)(=O)NCCc3ccccc3)cc2)CC1 | inactive: 2.5%
COC(=O)c1sc2ccccc2c1NC(=O)c1ccc(S(=O)(=O)N2CCCCC2)cc1 | inconclusive: 92.3%
CC(NC(=O)CCn1c(=S)[nH]c2ccsc2c1=O)c1ccccc1 (centres undefined) | inconclusive: 81.2%
COc1ccc(CN2CCNC(=O)C2CC(=O)N2CCCN(C(C)=O)CC2)c(OC)c1 (centres undefined) | inactive: 0.8%
CC(NC(=O)COC(=O)CCc1ccccc1)c1ccccc1 (centres undefined) | inactive: -15.7%
COc1nccnc1NS(=O)(=O)c1ccc(NC(=S)NC(=O)c2ccc(F)c(F)c2)cc1 | inconclusive: 90.7%
O=C(NCc1cccnc1)c1c(O)c2cccc3c2n(c1=O)CCC3 | inconclusive: 48.1%
Cc1ccc(NC(=O)CCCn2c(=S)[nH]c3ccsc3c2=O)cc1C | inconclusive: 67.4%
COc1ccc(Cl)cc1C(=O)CSc1nc(N)cc(N)n1 | inactive: -16.3%
O=c1oc2ccccc2cc1-c1nc(-c2cccs2)cs1 | inconclusive: 65.9%
CCNC(=S)N=Nc1c(O)[nH]c2ccc([N+](=O)[O-])cc12 | active: 45.3%
N#Cc1c(-c2ccc3c(c2)OCO3)ccn2nc(-c3cccc(C(F)(F)F)c3)nc12 | inconclusive: 51.3%
COc1ccccc1OP(=O)(O)Oc1ccccc1OC | inactive: 16.8%
C=C(C)[C@@H]1CCC2(C(=O)O)CC[C@]3(C)[C@H](CC[C@@H]4[C@@]5(C)CCC(=O)C(C)(C)[C@@H]5CC[C@]43C)[C@@H]12 (some centres undefined) | inconclusive: 69.5%

Reference: PubChem BioAssay AID485273 (Sanford-Burnham Center for Chemical Genomics, 2010)
